In article PMC4336329 (PLoS ONE, 2015):
About 14,000 (4.5%) of roughly 310,000 compounds showed an effect of 50% or more. Effects have a minus sign here. The list shows a part of the results.

target: human ether-à-go-go-related gene (hERG) potassium channel (human, UniProt Q12809); assay: primary screen, population patch clamp on CHO cells stably expressing hERG
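Further: peak tail current of the secondary pulse compared with the same well before compound.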

Sequence of human ether-à-go-go-related gene (hERG) potassium channel (Q12809 whole entry, looked up): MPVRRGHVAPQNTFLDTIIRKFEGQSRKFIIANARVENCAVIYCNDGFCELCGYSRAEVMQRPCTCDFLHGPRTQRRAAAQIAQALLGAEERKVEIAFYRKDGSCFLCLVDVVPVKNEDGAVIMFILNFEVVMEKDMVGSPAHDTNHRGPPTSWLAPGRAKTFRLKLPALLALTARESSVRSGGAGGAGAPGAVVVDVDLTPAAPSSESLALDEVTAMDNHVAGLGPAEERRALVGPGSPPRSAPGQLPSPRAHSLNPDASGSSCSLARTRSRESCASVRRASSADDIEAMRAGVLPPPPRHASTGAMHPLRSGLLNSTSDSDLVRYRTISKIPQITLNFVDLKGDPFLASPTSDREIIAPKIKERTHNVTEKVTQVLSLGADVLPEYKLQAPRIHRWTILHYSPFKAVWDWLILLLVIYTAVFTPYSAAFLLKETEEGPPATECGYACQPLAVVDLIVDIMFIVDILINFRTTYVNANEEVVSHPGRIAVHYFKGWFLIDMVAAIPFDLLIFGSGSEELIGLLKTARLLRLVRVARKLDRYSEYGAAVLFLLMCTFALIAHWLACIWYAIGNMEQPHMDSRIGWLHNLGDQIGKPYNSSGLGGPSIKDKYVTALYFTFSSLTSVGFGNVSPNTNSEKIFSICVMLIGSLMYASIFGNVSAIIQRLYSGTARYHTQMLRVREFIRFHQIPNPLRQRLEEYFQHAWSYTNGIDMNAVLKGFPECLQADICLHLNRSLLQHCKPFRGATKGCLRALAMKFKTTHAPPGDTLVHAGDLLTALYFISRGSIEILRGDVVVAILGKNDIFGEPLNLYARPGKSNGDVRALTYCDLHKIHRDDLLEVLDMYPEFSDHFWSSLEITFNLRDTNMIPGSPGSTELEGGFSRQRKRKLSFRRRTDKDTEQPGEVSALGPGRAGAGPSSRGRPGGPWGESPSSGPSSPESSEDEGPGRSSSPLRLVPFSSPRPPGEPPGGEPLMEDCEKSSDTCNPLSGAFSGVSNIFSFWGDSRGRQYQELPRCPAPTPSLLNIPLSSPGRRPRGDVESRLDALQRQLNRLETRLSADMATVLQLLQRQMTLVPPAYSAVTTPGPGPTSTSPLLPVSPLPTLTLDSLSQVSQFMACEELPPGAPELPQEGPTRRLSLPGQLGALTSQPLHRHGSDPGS

Structure (SMILES)	hERG current change (%, negative = inhibition) at 10uM [%]
O=C(COC(=O)c1ccccc1F)c1ccc(-n2nncc2-c2ccco2)cc1	12.9
COc1ccc(S(=O)(=O)NCCN2CCOCC2)cc1Br	17.8
Cc1cccc(NC(=O)CSc2nnc(C3CC3)n2CC2CCCO2)c1C (stereo not drawn)	6.09
Fc1cccc(-n2c(-c3ccco3)nc3nc4ccccc4nc32)c1	7
CCOC(=O)C1=C(c2ccccc2)Nc2ncnn2C1c1ccc(O)cc1 (stereo not drawn)	-2.1
CC(=C/c1ccccc1)/C=N/NC(=O)c1ccc2nc[nH]c2c1	-3.63
O=C(NNC(=O)c1c(O)c2ccccc2[nH]c1=O)c1ccccc1	16.6
COc1ccc(Cn2ccc(=O)c(Cc3c(Cl)cccc3Cl)c2C)cc1	-16.1
O=C(c1ccc(F)cc1)N1CCCCC(S(=O)(=O)c2ccccc2)C1=O (stereo not drawn)	4.45
CCOC(=O)N1CCC(Nc2c(-c3ccc(C)cc3)c(=O)c2=O)CC1	-46.7
S=C1NCN(C2CCCCC2)CN1CCc1ccccc1	7.31
Cc1nn(Cc2cccc(C(N)=O)c2)c(C)c1Br	-5
Cc1ccc([C@@H]2[C@@H]3C(=O)N(C)C(=O)[C@@H]3[C@]3(C)C(=O)N(Cc4ccccc4)CC(=O)N23)o1	3.95
O=C(NC(O)C(=O)c1cccs1)c1cccnc1 (stereo not drawn)	6.82
O=C(Nc1nnc(C2CC2)s1)c1cc([N+](=O)[O-])ccc1N1CCCCC1	-26.1
Nc1c(/C=C2/C=CC(=O)C(O)=C2)c(=O)nc2sc(CC(=O)N3CCCCC3)nn12	8.38
CO/N=C(/CS(=O)(=O)Cc1ccccc1Cl)c1ccc(Cl)cc1Cl	4.75
Cc1nn(CC(=O)NCc2ccc(OC(C)C)cc2)c(=O)c2cc3occc3n12	4.68
Cc1ccccc1-c1nc(CS(=O)(=O)CC(=O)NCCN2CCOCC2)c(C)o1	-1.17

Structure (SMILES)	hERG current change (%, negative = inhibition) at 10uM [%]
CCOC(=O)c1ccc(-n2c(CN3CCOCC3)nc3ccc([N+](=O)[O-])cc3c2=O)cc1	1.65
O=C(Nc1ccc2ccccc2c1)Nc1ccc2snnc2c1	8.76
O=C(O)/C=C\C(=O)Nc1ccc(Oc2ccc(Br)cc2)cc1	11.4
Cc1noc(C(=O)NC2CCCCC2)c1Cl	2.01
COc1ccc(OCCC(=O)OCC(=O)NCc2ccco2)cc1	4.99
C=CCn1c(=O)c(C(=O)Nc2cc(C)ccn2)c(O)c2ccccc21	21.3
CC(c1n[nH]c(=S)n1-c1ccc(F)cc1)N1CCCCC1 (stereo not drawn)	15.2
COc1ccc(CNc2nc3ccccc3n2C(C)C)cc1	-18.7
CC1=C(C)C(OCCBr)N(c2cc(O)c(Cl)cc2F)C1=O (stereo not drawn)	4.66
CN(C)S(=O)(=O)c1ccc(C(=O)NNC(=O)C2COc3ccccc3O2)cc1 (stereo not drawn)	-6.84
CCn1c(=O)c(C(=O)Nc2ccccc2C)c(O)c2ccccc21	3.53
NC(=O)c1ccc(/C=N/O)[n+](Cc2ccccc2)c1.[Br-]	9.69
O=C(COC(=O)C1=COCCO1)NC1CCCCC1	11.5
O=C(O)c1ccccc1-c1ccccc1C(=O)NNc1ccc([N+](=O)[O-])cc1	-0.0622
COCCNC(=O)CN1C(=O)COc2ccc(Cl)cc21	21.8
CCOc1cc(/C=C2\C(=N)N3N=CSC3=NC2=O)ccc1OS(=O)(=O)c1ccccc1	-15
Cc1ccc(C(=O)OC(C)CN2C(C)CCCC2C)cc1.Cl (stereo not drawn)	-43
C=CCNc1nc(Cl)nc(Nc2ccc(OC)cc2)n1	-7.32
Cc1ccc(C)c(S(=O)(=O)N2CCN(C(=O)Cn3[nH]c(=O)c4ccccc4c3=O)CC2)c1	-2.47

Structure (SMILES)	hERG current change (%, negative = inhibition) at 10uM [%]
Cc1cccnc1NC(N)=S	9.08
Cc1ccc(C2(C)NC(=O)N(CC(=O)c3ccc4c(c3)OCCO4)C2=O)cc1 (stereo not drawn)	-2.04
COc1cccc2sc3ccc(NCCC4CCCN4C)cc3c(=O)c12 (stereo not drawn)	1.65
COc1ccccc1NC1=CC(=O)CC(c2ccccc2)C1 (stereo not drawn)	-5.26
c1cnc2c(c1)ccc1ncccc12	14.1
CCCCCn1c(=O)[nH]c2cc(C(=O)NCCN3CCOCC3)ccc2c1=O	3.63
Cc1c(CN(C)C)c2c(n1Cc1ccccc1)C(=O)c1ccccc1-2.Cl	-75.6
O=C(c1ccc2nc[nH]c2c1)N1CCN(S(=O)(=O)c2cccc(F)c2)CC1	12
Cc1cnnc2c1-c1nonc1CC2	3.76
O=C1CC(O)(c2ccccc2)C(c2ccccc2)=C1c1ccccc1 (stereo not drawn)	5.2
Cn1cnc([N+](=O)[O-])c1C(=O)Nc1cccc([N+](=O)[O-])c1	-4.68
Cc1ccccc1NC(=O)c1ccc2c(c1)CCN2S(C)(=O)=O	10.2
COc1ccc(S(=O)(=O)N(C)CC(=O)Nc2ccc(C)cc2)cc1OC	0.815
O=C(CSc1nc(-c2cccs2)cc(C(F)(F)F)n1)NCc1ccco1	-9.61
CC(C)/C=C1\CC/C(=C\c2cccnc2)C1=O	-10.9
CCn1c(SCC(=O)Nc2cc(C)on2)nc2sc3c(c2c1=O)CCCC3	10.2
O=C(CN1CCC(n2nnc3cc(F)ccc32)CC1)Nc1ccc2c(c1)CCC2	-21.3
O=C(Nc1ccc(S(=O)(=O)NCc2cccnc2)cc1)c1ccco1	10.2
COc1ccc(N2CCN(CC(=O)Nc3cc(C)on3)CC2)cc1.O=C(O)C(=O)O	0.616
